Test results from PubChem BioAssay AID588855 (National Center for Advancing Translational Sciences (NCATS), 2011).
About 5,000 (1.2%) of roughly 410,000 compounds were called active. The inconclusive results got no clear call from the source; some entries with a clear call stand among them for comparison. The call rests on the fitted dose curve; in most records, active means well fitted inhibition curve with a large enough effect; inconclusive means small, poorly fitted or top-dose-only effect; inactive means no such curve, though single readings can be large or run the other way. Where the call is inconclusive, the potency comes from a doubtful curve fit.

Assay: qHTS for Inhibitors of TGF-b; further: nearly all actives have a fitted effect of over 65% in size
Settings: HepG2 CAGA-GFP TGF-b/SMAD3 reporter, GFP fluorescence, 18 h, TGF-beta stimulated, 500 pg/mL final; series mostly up to 46.1 µM; activity, negative = inhibition: at the top concentration
Procedure, shortened: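 Inhibition of TGF-beta-driven CAGA-GFP reporter expression in HEPG2 cells is measured by cellular GFP fluorescence after 18 h stimulation with 500 pg/mL recombinant TGF-beta in 1% FBS medium at 37 degrees C.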
On the % scale 0 is the no-effect control and ±100 the full control effect; potency means the concentration at half of the fitted maximal effect; tags describe the fitted curve by direction and shape.

Structure (SMILES) | Potency | activity, negative = inhibition
CC1(C)OC(=O)N(c2ccccc2)C12C=Cc1cc(Br)ccc1O2 (stereo not drawn) | inconclusive: 17.8 µM [inhibitor, single point] | –
COc1ccc(-c2nc3c(C)cc(Br)cn3c2CC2CCCCC2)cc1OC | inconclusive: 22.4 µM [inhibitor, single point] | –
CCn1ccc2cc(S(=O)(=O)N3CCC(C(=O)NCCc4ccccc4)CC3)ccc21 | inconclusive: 7.08 µM [inhibitor, partial curve, poor fit] | –
Cc1ccc(NS(=O)(=O)c2ccc(C(=O)NCCCN3CCCC3=O)cc2)cc1C | inconclusive: 35.5 µM [inhibitor, single point] | –
CC(C)=CCc1c(O)cc(O)c2c(=O)c3c(CC=C(C)C)c(O)ccc3oc12 | active: 3.98 µM | –
COc1ccc(C(=O)NC(=S)NNC(=O)c2ccc(O)cc2)cc1[N+](=O)[O-] | – | inactive: -13.1%
COc1ccc(-c2ncnc(C(F)(F)F)c2-c2csc(C)n2)c(O)c1 | – | inactive: -2.92%
Cc1ccc(C(=O)NC2CCCC(C)C2C)cc1S(=O)(=O)N1CCCCC1 (stereo not drawn) | inconclusive: 6.31 µM [inhibitor, partial curve] | –
CN(CC(=O)Nc1ccc(Cl)cc1)CC(=O)Nc1ccc(F)c(F)c1F | inconclusive: 20 µM [inhibitor, single point] | –
CCN(CC)S(=O)(=O)c1ccc2[nH]cc(C(=O)NCCc3ccccc3)c(=O)c2c1 | inconclusive: 6.31 µM [inhibitor, partial curve, poor fit] | –
COc1ccc(C2CC(=O)C3=C(C2)Nc2ncnn2C3c2ccccc2C)cc1 (stereo not drawn) | – | inactive: -9.39%
CC(=O)CC(=O)Nc1ccn(-c2ccccc2)n1 | – | inactive: -2.11%
COc1ccccc1NC(=O)CN1C(=O)CSc2ccc(S(=O)(=O)N3CCCC3)cc21 | inconclusive: 0.794 µM [inhibitor, full curve, poor fit] | –
C/C(=N\NS(=O)(=O)c1ccc(C)c([N+](=O)[O-])c1)c1cc2ccccc2o1 | inconclusive: 35.5 µM [inhibitor, single point] | –
Cc1cc(C)c(NC(=O)CCCn2c(C)c3cnn(-c4ccccc4)c(=O)c3c2C)c(C)c1 | inconclusive: 4.47 µM [inhibitor, partial curve, poor fit] | –
Cc1oc2cc3oc(=O)c(CCC(=O)NCCCn4ccnc4)c(C)c3cc2c1C | inconclusive: 3.16 µM [inhibitor, full curve, poor fit] | –
CC(C)CC(=O)Nc1nnc(SCc2cc(=O)n3ccccc3n2)s1 | – | inactive: -12.7%
CN(Cc1cccc(-n2cccn2)c1)Cc1cn(C)nc1-c1ccccc1F | inconclusive: 10 µM [inhibitor, partial curve] | –
C=CCn1c(SCC(=O)NCC2CCCO2)nc2scc(-c3ccccc3)c2c1=O (stereo not drawn) | – | inactive: 0%
COc1ccccc1-n1cc2ccc([N+](=O)[O-])cc2n1 | inconclusive: 7.94 µM [inhibitor, partial curve] | –
CCOC(=O)c1c(CSc2ccccc2)n(C)c2cc(Br)c(OCC(O)CNC(CO)(CO)CO)cc12 (stereo not drawn) | inconclusive: 7.94 µM [inhibitor, partial curve, poor fit] | –

Structure (SMILES) | Potency | activity, negative = inhibition
CC(Cc1cccs1)NC(=S)Nc1ccc(Cl)cc1 (stereo not drawn) | inconclusive: 35.5 µM [inhibitor, single point] | –
O=C(N/N=C/c1ccccn1)c1ccc(S(=O)(=O)N2CCCCCC2)cc1 | inconclusive: 12.6 µM [inhibitor, partial curve, poor fit] | –
Cc1ccc(S(=O)(=O)N(C)c2ccc(C(=O)NCCc3ccccc3)cc2)cc1 | inconclusive: 22.4 µM [inhibitor, partial curve, poor fit] | –
CCOc1cc(-c2c(C#N)c(N)nc3c2CCc2ccccc2-3)ccc1O | inconclusive: 11.2 µM [inhibitor, single point] | –
CCOC(=O)c1nnc(-c2ccccc2)nc1Oc1ccccc1Cl | inconclusive: 15.8 µM [inhibitor, single point] | –
Cc1ccc2cc(CN(CC(C)C)C(=O)C3CCCO3)c(=O)[nH]c2c1 (stereo not drawn) | inconclusive: 0.501 µM [inhibitor, full curve, poor fit] | –
CC(=O)c1cccc(N(C(=O)CNC(=O)c2ccco2)C(C(=O)NC2CCCC2)c2ccc(C)o2)c1 (stereo not drawn) | inconclusive: 0.447 µM [inhibitor, partial curve, poor fit] | –
Cc1cc(C)n2c(SCC(=O)N(CCC#N)c3ccc4c(c3)OCCO4)nnc2n1 | inconclusive: 1.26 µM [inhibitor, full curve, poor fit] | –
CN1CCN(C(=S)SCC(=O)Nc2nc(-c3ccccc3)c(-c3ccccc3)o2)CC1 | inconclusive: 28.2 µM [inhibitor, single point] | –
CC(C)C[C@H]1CN([C@@H](Cc2ccccc2)CN2CCC[C@@H]2CN2C(=O)C(=O)NC[C@@H]2Cc2ccc(O)cc2)C(=O)C(=O)N1CC1CCCCCC1 | inconclusive: 11.2 µM [inhibitor, single point] | –
COC(=O)c1ccc(NS(=O)(=O)c2cc(C)ccc2OC)cc1 | inconclusive: 28.2 µM [inhibitor, single point] | –
CN1CCN(c2nc(-c3ccc(C(C)(C)C)cc3)nc3ccccc23)CC1 | inconclusive: 31.6 µM [inhibitor, single point] | –
Cc1cccc(NC(=O)c2cccc(Cn3cc(Br)c([N+](=O)[O-])n3)c2)c1C | – | inactive: -32.3%
Cc1nc(NC(=S)NC(=O)c2cncc(Br)c2)ccc1Br | – | inactive: 14.1%
COc1cc(NS(=O)(=O)c2ccc(C)cc2)c2ncccc2c1 | inconclusive: 3.16 µM [inhibitor, single point] | –
CCOC(=O)c1c(C)oc2nc(C)nc(NCc3cccc(Cl)c3)c12 | – | inactive: 16.2%
O=C(Nc1ccc(Oc2cccnc2)cc1)C1CCN(Cc2cc(Cl)ccc2O)CC1 | active: 12.6 µM | –
Nc1nc(Nc2ccccc2Cl)cc(=O)[nH]1 | – | inactive: 0.211%
Cc1ccccc1N=Cc1ccc[nH]1 | – | inactive: 7.55%
CN1C(=O)Cc2cc(S(=O)(=O)CCC(=O)N3CCN(c4cccc(Cl)c4)CC3)ccc21 | inconclusive: 22.4 µM [inhibitor, single point] | –
C[C@@H]1CN([C@@H](C)CO)C(=O)Cc2cc(NC(=O)Nc3ccc(F)cc3)ccc2O[C@@H]1CN(C)Cc1ccc(Cl)c(Cl)c1 | inconclusive: 20 µM [inhibitor, single point] | –

Structure (SMILES) | Potency | activity, negative = inhibition
CCc1ccc(NC(=O)c2c(C(=O)Nc3ccccc3)sc3nc(C)cc(=O)n23)cc1 | inconclusive: 35.5 µM [inhibitor, single point] | –
Cc1cccc(C(=O)O[C@@H]2[C@H](Cc3ccccc3)NS(=O)(=O)[C@H]3C[C@@H]4C=C[C@]23O4)c1 | inconclusive: 0.112 µM [inhibitor, full curve, poor fit] | –
O=C(NCc1nnc(SCc2ccccc2)n1-c1ccccc1)C12CC3CC(CC(C3)C1)C2 | inconclusive: 35.5 µM [inhibitor, single point] | –
O=C(NCc1ccccc1Cl)C1CCCN(c2ncnc3c2nc2n3CCCCC2)C1 (stereo not drawn) | – | inactive: -22.2%
CCOc1cc(CNCCO)cc(Br)c1OCc1cccs1 | inconclusive: 35.5 µM [inhibitor, single point] | –
C=C(C)COc1ccc(-c2nc(N)nc(C(F)(F)F)c2-c2ccc(OC)cc2)c(O)c1 | inconclusive: 35.5 µM [inhibitor, single point] | –
COc1cc(-c2noc(C3CC(=O)N(c4cc(C)ccc4C)C3)n2)cc(OC)c1OC (stereo not drawn) | inconclusive: 5.01 µM [inhibitor, single point] | –
Cc1c(NC(=O)C(C)OC(=O)c2ncc(Cl)c(Cl)c2Cl)c(=O)n(-c2ccccc2)n1C (stereo not drawn) | inconclusive: 35.5 µM [inhibitor, single point] | –
COc1cc(C)c2c(c1OC)C(=O)CC2 | inconclusive: 5.62 µM [inhibitor, single point] | –
C[C@H](CO)N1C[C@H](C)[C@@H](CN(C)Cc2ccc3c(c2)OCO3)Oc2ccc(NS(C)(=O)=O)cc2C1=O | inconclusive: 5.62 µM [inhibitor, single point] | –
O=C(Nc1cccc(Cl)c1)c1ccc(NCCCN2CCOCC2)c([N+](=O)[O-])c1 | inconclusive: 35.5 µM [inhibitor, single point] | –
CCc1ccc(NC(=O)C2CCCN(S(=O)(=O)c3cccc4nonc34)C2)cc1 (stereo not drawn) | – | inactive: -2.03%
O=C(c1ccc(-c2ccc([N+](=O)[O-])cc2)o1)N1CCN(S(=O)(=O)c2cccs2)CC1 | inconclusive: 6.31 µM [inhibitor, single point] | –
CN(c1ccccc1)S(=O)(=O)c1ccc(C(=O)Nc2ncccc2O)cc1 | – | inactive: 13.5%
CC1CCC(NC(=O)c2cccc(S(=O)(=O)N3CCOCC3)c2)CC1 (stereo not drawn) | inconclusive: 0.891 µM [inhibitor, full curve, poor fit] | –
CC(C)(C)OC(=O)NNC(=O)C12CC3CC(CC(C3)C1)C2 | inconclusive: 4.47 µM [inhibitor, single point] | –
O=C(Nn1cnnc1)c1ccc(OC(F)(F)C(F)C(F)(F)F)cc1 (stereo not drawn) | – | inactive: 8.26%
CCn1cc(C(=O)NCc2ccccc2OC)c(=O)c2cc(S(=O)(=O)N3CCCCCC3)ccc21 | – | inactive: -17.7%
O=C(O)C1=C[C@@H](c2csc3ccccc23)C[C@@H](OCc2ccc(CO)cc2)O1 | inconclusive: 35.5 µM [inhibitor, single point] | –
Cc1n[nH]c(C)c1CN(C)C(=O)c1cc(COc2ccc(F)c(F)c2)on1 | inconclusive: 35.5 µM [inhibitor, single point] | –
CC(=C/C(=O)O)/C=C/c1ccc([N+](=O)[O-])cc1 | – | inactive: 27.5%
